Test results published in PubChem BioAssay AID463173 (ICCB-Longwood Screening Facility, Harvard Medical School, 2010).
Among all 52,000 compounds or so, about 1,700 (3.3%) were called active. No stated cut-off is given here; in the data, active means survival mostly below about 52% (no sharp cut-off); inactive means mostly above about 56%. The list shows a part of the results.

The compounds below were run on Wild type (assay: growth inhibition of S. aureus wild type versus tarO mutant, primary screen, teichoic acid synthesis inhibitors, RN4220, OD600 (AID 463173)). Conditions: S. aureus RN4220 wild type/DeltatarO growth, OD600, 18 h, stronger effect = lower value, screened at 18.75 µg/mL (by protocol).

| Structure (SMILES) | survival |
| --- | --- |
| CCOC(=O)CSc1nc2c(sc3ccccc32)c(=O)n1CCO | active: -6% |
| CCN(CC)CCCNc1ncnc2c1cnn2-c1ccc(C)c(C)c1 | inactive: 77% |
| Cc1csc2nc(COc3cccc(NC(=O)c4ccccc4F)c3)cc(=O)n12 | inactive: 130% |
| COc1ccc(OCC(O)Cn2c(NCCO)nc3c2c(=O)n(C)c(=O)n3C)cc1 (configuration not stated) | inactive: 67% |
| Cc1nn(CC(=O)N2CCN(c3ccc(Cl)cc3)CC2)c(=O)c2cccn12 | inactive: 85% |
| O=C(CSC1=Nc2ccccc2N=C(c2ccc(F)cc2)C1)Nc1ccccc1 | inactive: 100% |
| CCOc1ccc(NC(=O)c2c(NC(=O)Cc3ccccc3)sc3c2CCCCC3)cc1 | inactive: 70% |
| Cc1ccc(-n2c(=O)c3c(c4cc(C)ccc4n3C)n(CC(=O)N3CCCC3)c2=O)cc1 | inactive: 70% |
| Cc1[nH]n(-c2ccc(Cl)cc2)c(=O)c1C(=O)c1ccccc1 | inactive: 67% |
| Cc1ccc2nc(COc3ccccc3NC(=O)c3ccc(F)cc3)cc(=O)n2c1 | active: -3% |
| O=C(CSc1nc2c([nH]c3ccccc32)c(=O)n1-c1ccc(Cl)cc1)c1ccccc1 | inactive: 110% |
| Cc1cc(C)cc(NC(=O)Cn2cc(C(=O)C3CCCCC3)c3ccccc32)c1 | inactive: 68% |
| Cc1ccc2c(=O)cc(C(=O)Nc3ccc(S(=O)(=O)Nc4ncccn4)cc3)oc2c1C | inactive: 86% |
| Cc1cc(C)c(NC(=O)C2CCN(c3nn4c(=O)cc(C)nc4s3)CC2)c(C)c1 | inactive: 90% |
| COc1ccc(NCc2cccn2-c2nnc(N3CCCCC3)s2)cc1OC | inactive: 75% |
| COc1ccccc1CNC(=O)c1cn(C)c2ccc(S(=O)(=O)N(C)C3CCCCC3)cc2c1=O | inactive: 74% |
| Cc1ccc(NC(=O)CSc2cn(CC(=O)N3CCCC3)c3ccccc23)cc1Cl | inactive: 97% |
| CCOc1ccc(NS(=O)(=O)c2ccc3c(c2)CCCN3C(=O)C2CCC2)cc1 | inactive: 74% |
| COc1ccc(CCNc2ncnc3c2cnn3-c2cc(Cl)ccc2C)cc1 | inactive: 159% |
| Cc1ccc(NC(=O)Cn2c(=O)nc(-c3ccccc3)c3ccccc32)cc1F | inactive: 66% |
| CC(C)(C)C1CCc2oc3ccc(NS(=O)(=O)c4ccc(C(=O)O)cc4)cc3c2C1 (configuration not stated) | inactive: 52% |
| COc1ccc(Cn2c(SCC(=O)N(C)Cc3ccccc3)nc3ccccc32)cc1 | inactive: 92% |

| Structure (SMILES) | survival |
| --- | --- |
| Cc1ccc(NC(=O)c2cc(S(=O)(=O)NCCc3ccc(Cl)cc3)ccc2F)cc1 | inactive: 74% |
| Cc1cccc(-c2noc(-c3ccc(N4CCOCC4)c([N+](=O)[O-])c3)n2)c1 | inactive: 87% |
| CC1CCN(S(=O)(=O)c2ccc3c(ccc(=O)n3CC(=O)Nc3cccc(F)c3)c2)CC1 | inactive: 121% |
| O=C(Nc1cnc(N2CCN(c3ccccc3)CC2)c(C(=O)O)c1)c1cccs1 | inactive: 124% |
| CN1CCc2c(sc3c2C(=O)NC(c2ccc(C(C)(C)C)cc2)N3)C1 (configuration not stated) | inactive: 74% |
| CC1CCCCN1C(=O)c1cc(-c2ccc(Br)cc2)on1 (configuration not stated) | inactive: 84% |
| CC1=C(C(=O)N2CCN(c3cccc(Cl)c3)CC2)C2(CCCCC2)OC1=O | inactive: 69% |
| CCOC(=O)C1CCN(c2nc3c(S(=O)(=O)c4ccc(C)c(C)c4)nnn3c3ccc(Cl)cc23)CC1 | inactive: 121% |
| CCN(CC)S(=O)(=O)c1ccc2nc(NC(=O)c3cncc(Br)c3)sc2c1 | inactive: 73% |
| CCN(C(=O)c1cc2c(=O)oc3ccc(C)cc3c2s1)c1ccccc1C | inactive: 81% |
| Cc1ccc(OCc2nc(-c3ccc(C(=O)NCc4ccc(OC(C)C)cc4)cc3)oc2C)cc1 | inactive: 119% |
| Cc1cccn2c(=O)c(C(=O)NC(C)c3ccccc3)cnc12 (configuration not stated) | inactive: 82% |
| Cc1nc2scc(C)n2c(=O)c1S(=O)(=O)NCCc1ccccc1 | inactive: 122% |
| Cc1ccc(C)c(CN2C(=O)c3ccccc3S(=O)(=O)c3ccc(C(=O)NCCC4=CCCCC4)cc32)c1 | inactive: 82% |
| Cc1cc(C)c(NC(=O)C(C)n2nnc3sc4c(c3c2=O)CCCC4)c(C)c1 (configuration not stated) | inactive: 92% |
| COc1ccc(Nc2oc(-c3ccc(COc4ccccc4C)o3)nc2C#N)cc1 | inactive: 86% |
| Cc1cc(C)cc(N2C(=O)N(Cc3cccc(F)c3)c3ccccc3S2(=O)=O)c1 | inactive: 105% |
| Cc1ccc(C(=O)c2cn(Cc3ccc(Cl)cc3)c3nc(C)ccc3c2=O)cc1 | inactive: 53% |
| COc1ccc(N2CCN(C(=O)CSc3n[nH]c(-c4ccccc4Cl)n3)CC2)cc1 | inactive: 72% |
| Cc1ccc(CNC(=O)c2cc(-c3ccc(Cl)cc3)on2)cc1 | inactive: 90% |
| Cc1cc(NC(=O)CN2C(=O)c3cccnc3Sc3ccccc32)ccc1Br | inactive: 87% |
| c1cc2cc(C3=NCCN3)ccc2cc1C1=NCCN1 | inactive: 105% |

| Structure (SMILES) | survival |
| --- | --- |
| COc1ccc(OC)c2sc(N(Cc3cccnc3)C(=O)c3ccco3)nc12 | inactive: 79% |
| CCc1ccccc1NC(=O)Nc1nnc(N(CC)c2ccccc2)s1 | inactive: 85% |
| CCCNC(=O)N(C)c1ncnnc1NC | inactive: 100% |
| CN(C)c1ccc(CNC(=O)CN2CCSc3ccc(S(=O)(=O)N(C)C)cc32)cc1 | inactive: 87% |
| Cc1ccc2oc(=O)c(S(=O)(=O)c3ccc(C(C)(C)C)cc3)cc2c1 | inactive: 81% |
| CCN(c1ccccc1)S(=O)(=O)c1nnc(NC(=O)COc2cccc(C)c2)s1 | inactive: 104% |
| CCCCCn1c(=O)[nH]c2cc(C(=O)N3CCN(c4cccc(C(F)(F)F)c4)CC3)ccc2c1=O | inactive: 70% |
| Cc1ccc(CNC(=O)CNS(=O)(=O)c2cccs2)cc1 | inactive: 71% |
| Cc1ccc(NC(=O)C2CCN(c3nn4cc(-c5ccc(C)cc5)nc4s3)CC2)cc1 | inactive: 60% |
| CCOc1ccc(NC(=O)Cn2c(=O)n(CC(=O)NCc3ccccc3Cl)c(=O)c3sccc32)cc1 | inactive: 164% |
| CC(C)(C)c1ccc(C(=O)Nc2sc3c(c2C#N)CCC(C(C)(C)C)C3)cc1 (configuration not stated) | inactive: 84% |
| O=C(Nc1ccc(Br)cc1)C1CCCN1S(=O)(=O)c1ccc(F)cc1 (configuration not stated) | inactive: 91% |
| COc1ccc(CNC(=O)c2oc3c(c2C)-c2nn(Cc4ccc(Cl)cc4)cc2CC3)cc1 | inactive: 77% |
| CCOC(=O)c1c(N2C(=O)C3C4C=CC(O4)C3C2=O)sc2c1CCCC2 (configuration not stated) | inactive: 110% |
| COc1cc(OC)c(NS(=O)(=O)c2c(C(=O)N3CCC(C)CC3)c(C)n(C)c2C)cc1Cl | active: -1% |
| Cc1nnc(NC(=O)CSCc2cc(=O)c3ccccc3[nH]2)s1 | inactive: 119% |
| COc1ccc(CCNC(=O)CCn2c(=O)c3ccccc3n(Cc3ccccc3)c2=O)cc1OC | inactive: 97% |
| CC(C)c1nn2c(=O)cc(COC(=O)c3ccccc3NC(=O)c3cccc(Cl)c3)nc2s1 | inactive: 69% |
| Cc1cc(Nc2ccc(C(=O)O)c(O)c2)n2ncnc2n1 | inactive: 72% |
| C=CCN1C(=O)CN=C1Nc1ccccc1 | inactive: 106% |
| CN(C)CCNc1oc(-c2ccc(COc3ccc(Cl)cc3)o2)nc1C#N | inactive: 82% |
| Cc1cc(NC(=O)Cc2ccccc2)no1 | inactive: 111% |

| Structure (SMILES) | survival |
| --- | --- |
| Cc1nc2ccn(Cc3cccnc3)c(=O)c2cc1C(=O)N1CCN(c2ccc(F)cc2)CC1 | inactive: 82% |
| COC(=O)c1ccccc1NC(=O)c1cnc2c(-c3cccc(C)c3)c(C)nn2c1C | inactive: 133% |
| CCS(=O)(=O)N1CC(=O)N(c2ccc(Cl)cc2)C(C)(C(=O)NC2CCCCCC2)C1 (configuration not stated) | inactive: 115% |
| COc1ccc(CCNC(=O)C(C)n2c(=O)cc(C(F)(F)F)c3c(C)nn(C)c32)cc1OC (configuration not stated) | inactive: 82% |
| Cc1cc(C)cc(Oc2nc3c(C)cccn3c(=O)c2/C=C(\C#N)c2nc3ccccc3s2)c1 | inactive: 128% |
| COc1ccc(N2CCN(Cc3nnc(-c4cccc(Br)c4)o3)CC2)cc1 | inactive: 85% |
| CCc1ccc(C(=O)c2cn(Cc3ccc(F)cc3)c3cc(OC)c(OC)cc3c2=O)cc1 | inactive: 85% |
| CC(=O)c1cc(-c2ccc(F)cc2)n(CC(=O)Nc2cc(C)cc(C)c2)c1C | inactive: 66% |
| COc1ccccc1Cc1nc2ccccc2nc1SCC(=O)N1CCN(c2ccccc2)CC1 | inactive: 80% |
| Cc1ccc(C(C)C)c(OCCSc2nc3ccccc3n2CC(O)CO)c1 (configuration not stated) | inactive: 61% |
| Cc1ccc(C)c(Cn2c(C(=O)OC(C)C)cc3c2ccn3C)c1 | inactive: 109% |
| COc1ccc(CCn2c3c(c(=O)[nH]c2=O)C(NC(=O)c2ccc(C(C)(C)C)cc2)(C(F)(F)F)C(=O)N3)cc1OC (configuration not stated) | inactive: 87% |
| CCc1[nH]nc2c1C(c1ccc(F)c(Oc3ccccc3)c1)C(C#N)=C(N)O2 (configuration not stated) | inactive: 114% |
| COc1cccc(NC(=O)/C(C#N)=C/c2c(C)n(Cc3ccc(Cl)cc3)c3ccccc23)c1 | inactive: 81% |
| CC(C)Cn1c(-c2ccc(S(=O)(=O)N3CCOCC3)cc2)csc1=Nc1cc(Cl)ccc1Cl | inactive: 82% |
| O=C(NCc1ccco1)c1ccc2c(c1)N(Cc1ccc(Cl)cc1)C(=O)c1ccccc1S2 | inactive: 82% |
| CCOc1ccc(Nc2nc3c(S(=O)(=O)c4ccc(C(C)C)cc4)nnn3c3ccsc23)cc1 | inactive: 81% |
| Cc1cc2nc(-c3ccc(NC(=O)c4cc5ccccc5o4)cc3)oc2cc1C | inactive: 83% |
| CCN(CC)CN1C(=O)C2C3c4ccccc4C(c4ccccc43)C2C1=O (configuration not stated) | inactive: 111% |
| Cc1sc2ncn(CC(=O)Nc3ccc(C(C)C)cc3)c(=O)c2c1S(=O)(=O)N1CCN(c2ncccn2)CC1 | inactive: 85% |
| CC1(C)N=C2C(=[N+]1[O-])CCC/C2=N/O | inactive: 110% |
